Data on 22 molecules can be found in article PMC12136788.

Sequences and labels used below:
B1: chr15:66548596:66548706:+|3pUTR|ENSG00000174442|unk|FALSE|unique (ssRNA)
RNA: GGGAGUUCUACAGUCCGACGAUCUAGCAAGGGCUCUGAAAUGACAAAGAGAACGAGCACCACAAAUGAGAACAGGAUCAUUUUAGUAAAUACAGCUUUAUCCCAAAAGCUUUAACUGUAUUGGGAAAACUUAAAAAAUAGCAUCAACAGAGGAUUGAGCAUCA
B2: chr5:83943476:83943577:-|CDS|ENSG00000164176|msi1|FALSE|unique (ssRNA)
RNA: GGGAGUUCUACAGUCCGACGAUCAUAAAAAUAAUUUCAAAGAAAGAAGGCUGUGUGACUGACAUUUUUCUGCUCUUCUUUAUUAGGUUUUCCAGGGAAAUUUUGACAAUGACACUCACAGAAAAAAUGUCAUCGACCCUCCCACAACAGAGGAUUGAGCAUCA
B3: chr1:16057768:16058436:-|three_prime_utr|ENSG00000185519|control|control|control (ssRNA)
RNA: GGGAGUUCUACAGUCCGACGAUCGCAGCCCAGGCAUAUCUGGACCCCGGGGUCCAGGGCAGGGCAUCCCUUGACCCCUCGGGUAGGCACAGGGUAGGUGCGGCAGGGAUGGGGCCAGUGCUCAUGGUGGCCUCUCUGUGCCUCCAACAGAGGAUUGAGCAUCA
B4: chr2:128192036:128192329:+|3pUTR|ENSG00000136731|msi1|total|mutant (ssRNA)
RNA: GGGAGUUCUACAGUCCGACGAUCAUGUCCUGGUGUCACUCAUUGCCUCUUAUCUGUCGCCAUUCUAAUAUAAGUCAGCUUAACCGUUGACUCUGAAUAAUGCAAAACCCAGCUUGCUUCCAGAAUGGCCCCGGACCCUCCUCCCAACAGAGGAUUGAGCAUCA
B5: chr7:20413385:20413486:+|3pUTR|ENSG00000105855|msi1|FALSE|unique (ssRNA)
RNA: GGGAGUUCUACAGUCCGACGAUCACUGAAGAUAUCUUUAUGCAAGACAAGAGUCAGCCAUCAGACACUGAAAUAUAUUAUGAUAGAUUAUGAAGAAUUUUCUCUGUAGAAUUAUAUUCUUCCUGGAACCUGGUAGAGUAGAUUCAACAGAGGAUUGAGCAUCA
B6: chr1:31434308:31434366:+|3pUTR|ENSG00000168528|msi1_unk|total|mutant (ssRNA)
RNA: GGGAGUUCUACAGUCCGACGAUCGCCAGGCUGAGCCCCCACCCCUGCCCCAGCUCCAGGACCUGCCCCUGAGCCGGGCCUUCCCGUCGCCGUGCCUUCAGGGUCCGAGGAGCAUCAGGCUCCUGCAGAGCCCCAUCCCCCCGCCAACAGAGGAUUGAGCAUCA
B7: chr1:21217244:21217432:-|3pUTR|ENSG00000117298|msi1|FALSE|unique (ssRNA)
RNA: GGGAGUUCUACAGUCCGACGAUCCCGCUCCAGAGCUUUAAGGAAAAUGAAGUGAGACCCCUCCCCUUAGGCCUGGGGAGCCAUAGGGCUGGCUUCUCUGUGGGUGCGUGGACGUGGGGUUGGGAGCUGGGAAUCUAUUUUUUGCAACAGAGGAUUGAGCAUCA
B8: chr16:67657985:67658362:-|CDS|ENSG00000102977|control|control|control (ssRNA)
RNA: GGGAGUUCUACAGUCCGACGAUCUCCACACCAGGCUCUUGUGACCAGGCCCCAGAAACCUAGCCUGGAGUUCAAGGAGUUUGUAGGGUUGCCCUGCAAGAAUCGGCCGCCUUUUCCCAGGACCGGAGCUACCAGGGGAGCCCACAACAGAGGAUUGAGCAUCA
B9: chr17:29262523:29262623:-|3pUTR|ENSG00000108256|msi1_unk|total|mutant (ssRNA)
RNA: GGGAGUUCUACAGUCCGACGAUCACUUUGACUGAUAUUGUAAUUUUCAAAUGUAUAAUAUGUUUACAGAUGUGCCCUGCAUUCCGUCUGCCUUGUUCCUAUUUUGAUUUUUGUUGAGUCUCCUGCCUGCUUGCCAAAAGCCCGCAACAGAGGAUUGAGCAUCA
B10: chr1:10947665:10948844:-|CDS|ENSG00000175262|control|control|control (ssRNA)
RNA: GGGAGUUCUACAGUCCGACGAUCCCCCAGGGAGGGGGCCAGGGGGCACAUGGACCUUUCAUCCUCAGAACCAAGCCAGGACAUAGAGGGGCCGGGACUCUCCAUCCUGCCAGCGAGGGAUGCCACAUUCUCCACCCCAAGUGUCAACAGAGGAUUGAGCAUCA
B11: chr11:13729208:13729309:+|3pUTR|ENSG00000197601|unk|total|mutant (ssRNA)
RNA: GGGAGUUCUACAGUCCGACGAUCAAAGUUGGCCGAUAUUUGAUUCUUCAUUUUUUGUUUUUUUCAUCCGUUGAAGUGGGUUUCCGUUUUGUUUAAAAUUAUAACCAGCGUAUUUUCACAUCAUUCUGUAAGUUAAAUGAUAUCCAACAGAGGAUUGAGCAUCA
B12: chr1:109062613:109062715:-|3pUTR|ENSG00000197780|unk|total|mutant (ssRNA)
RNA: GGGAGUUCUACAGUCCGACGAUCAGUUCUGAAUACACAGGUUUUGUGUGUAUUUACUCUAUGUAUUAAAUUAUUAUUGCCCUCCGUUUAAAGUAAGGAUUACAAUUGGAUUUAAGCCGAUCACUGAAUGUUAUUGUUUAUGAACAACAGAGGAUUGAGCAUCA
B13: chr1:62864655:62864756:+|3pUTR|ENSG00000125703|unk|total|mutant (ssRNA)
RNA: GGGAGUUCUACAGUCCGACGAUCUUUGUUAACUGUGAUAUGCAUACACUUAUAUAAGCAGAAUUAUGAGUUAAAGUAAUACUCCGCAAUAUGAUUUUAUAAUGGCUCCUCAUUAUGCUUGCUGUUGAACCUUUUAUGAGGAGUCAACAGAGGAUUGAGCAUCA
B14: chr3:98585547:98585662:-|CDS|ENSG00000080819|unk|FALSE|unique (ssRNA)
RNA: GGGAGUUCUACAGUCCGACGAUCUCCAUUUGAUCCCUGGUUUGGCGCCGCUGUGUUUUCCAGGUGUGAUGAUUACUUCUUUAUAGCCCAUCGUGGAGAACGGCGGGGCAUUGGUGGUAUCUUUUUUGAUGAUCUUGACUCUCCCAACAGAGGAUUGAGCAUCA
B15: chr1:156668797:156668898:-|3pUTR|ENSG00000132688|msi1|total|mutant (ssRNA)
RNA: GGGAGUUCUACAGUCCGACGAUCUGACGGCACUCCCAUGUGCUGACUCCCCCCAUCCCUGCCACGCUGUGGCCCUGCCUGGCCCGUCCCUGCCUGAAUAAAGUAAUGCCUCCGCUUCAAAGUCUGGACUCUUCUUUCCCCCACCAACAGAGGAUUGAGCAUCA
B16: chr9:35750248:35750349:+|CDS|ENSG00000107185|msi1|FALSE|unique (ssRNA)
RNA: GGGAGUUCUACAGUCCGACGAUCGGCCCUGGCCUGGGCCAGUGCCCAAAUCCACUGCCAGUUCCAUGCCAGUGAGAGUCGAGUAGCACUGCCUCCUCCUGACUCUAGUCAGCCAGAUGUCCAGCCCGACAGCCAGACUGUCUUCAACAGAGGAUUGAGCAUCA
B17: chr11:69651811:69651939:+|3pUTR|ENSG00000110092|msi1_unk|total|mutant (ssRNA)
RNA: GGGAGUUCUACAGUCCGACGAUCUAAAGCACAGCUGCCGUGGGGUUCCCGGCAUCUCUGUACUUUGCUUGCUCAUAUGCAUGCCGUCACUUUAUAAGUCAUUGUAUGUUAUUAUAUUCCGCCGGCCGAUGUGUAACCUCUUCACAACAGAGGAUUGAGCAUCA
B18: chr1:167421552:167421653:+|3pUTR|ENSG00000143190|unk|FALSE|unique (ssRNA)
RNA: GGGAGUUCUACAGUCCGACGAUCUUUUCUUCUAACCUUAUUCAUUAAGUAGUUCCUUGUUUUGGCCCUUCUACUCUUGGCCUUAGCUAAAAGCAGUAAAUGUGAGUGAAUUUUAUGUUGAUUAUGUCACCUGGAUCUCCUUUCCAACAGAGGAUUGAGCAUCA
B19: chr6:36232219:36232320:+|3pUTR|ENSG00000096070|unk|FALSE|unique (ssRNA)
RNA: GGGAGUUCUACAGUCCGACGAUCGCUAGGGAAGGACAUGGUGUAUAUAAUUGUAAAAUACUGUUCUAAAUUAUUCAGGCCUAUAGUUUCCAUUACUGGAGUCCUCCAUUGUGUGGCCACACAGUGUCGUUGAUUUAAAGGAGCCAACAGAGGAUUGAGCAUCA
B20: ENSG00000168936:stop:overlap|stop_codon|ENSG00000168936|stop_codon|NA|stop_codon (ssRNA)
RNA: GGGAGUUCUACAGUCCGACGAUCGUGUGGCCAGCACCAACCCUGCUGUGCAGGCCUUUGACAUCUGGAGCUGGAGGCCUGCAUAGGCUGCAUGCAGACACGUGCCAGCGUGAAGCUGGUGAAGACCUGCCAGGAGGCAGCCACCAACAGAGGAUUGAGCAUCA
B21: chr12:120764159:120764260:-|3pUTR|ENSG00000157837|msi1|FALSE|unique (ssRNA)
RNA: GGGAGUUCUACAGUCCGACGAUCACACACACAUAGAUAUAUAUGAAUAAACAAAAAUGAAAUCCUGCUAAGAUCACGCUGUGUAGCUGACAGGGGCUUGCUGUCGUUUUGAGCAUGUCGAGCAGUUUACUGUGGCUUCCUUGUCAACAGAGGAUUGAGCAUCA
B22: chr3:73066602:73066703:+|3pUTR|ENSG00000163605|unk|FALSE|unique (ssRNA)
RNA: GGGAGUUCUACAGUCCGACGAUCACUAUUUUGUAGAAUGAAUGUUUAUGAAGCUGAUAUGAGACCAUCUCAGAAGAACCAAGUAGGUUCCUUGACCUUUUGCUUGCUUUUCUGAACAUUGUGAAUAUUACACAUGUCUUUCUACAACAGAGGAUUGAGCAUCA

Some of the results follow.

The assay addresses T1, UNK ZnF1-6 (called full-length) (human, UniProt Q9C0B0 30-357).
T1 sequence: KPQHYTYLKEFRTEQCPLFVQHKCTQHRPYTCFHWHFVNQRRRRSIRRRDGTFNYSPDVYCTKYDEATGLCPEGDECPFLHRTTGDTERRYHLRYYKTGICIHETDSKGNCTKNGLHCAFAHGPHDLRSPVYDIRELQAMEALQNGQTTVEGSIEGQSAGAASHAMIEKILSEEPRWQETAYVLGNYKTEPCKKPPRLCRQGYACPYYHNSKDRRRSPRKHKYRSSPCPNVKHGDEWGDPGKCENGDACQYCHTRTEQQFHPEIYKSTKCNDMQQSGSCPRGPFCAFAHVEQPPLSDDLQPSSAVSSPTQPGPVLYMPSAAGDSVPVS
The assay is described as follows: nsRBNS (natural sequence RNA bind-n-seq); RBNS binding buffer (assumed for nsRBNS): 25 mM Tris pH 7.5, 150 mM KCl, 3 mM MgCl2, 0.01% Triton X-100, 500 ug/ml BSA, 20 U/ml SUPERase-In, 4 C; UNK is unkempt and MSI1 is Musashi-1; names of the RNAs are library labels; protein concentration not given here; high values mean tight binding.
As for B1, the binding signal was 7.95 enrichment R.
Molecule B2 had a binding signal of 0.757 enrichment R.
B3 showed a binding signal of 0.721 enrichment R.
With B4, the binding signal worked out at 0.55 enrichment R.
For the molecule B5, the binding signal worked out at 0.976 enrichment R.
As for B6, the binding signal was found to be 1.36 enrichment R.
B7 yielded a binding signal of 0.922 enrichment R.
As for B8, the figure is 0.613 enrichment R; as for B9, 0.542 enrichment R.
Molecule B10 had a binding signal of 0.995 enrichment R.
B11 came in with a binding signal of 0.478 enrichment R.
As for B12, the figure is 0.999 enrichment R; as for B13, 1.06 enrichment R.
To B14 belongs 0.57 enrichment R.
As for B15, the binding signal is 1.34 enrichment R.
For B16, the binding signal was found to be 0.625 enrichment R.
Consider B17, for which the binding signal is 0.566 enrichment R.
As for B18, the figure is 0.663 enrichment R; as for B19, 0.931 enrichment R.
B20 registered a binding signal of 1.06 enrichment R.
In turn, B21 showed a binding signal of 3.06 enrichment R.
To B22 belongs 0.351 enrichment R.
